From article PMC11043401
These are yes or no findings as the source states them, for the method shown. For part of these data: Binding seen in cells or lysates may run through a third protein. Some binding calls cover weakened binding; strength is not graded here. For part of these data: Tags and fused reporters may be left off the sequences shown. One block for each binder: values may come before it.

Legend:
[1] = molecular target: T1, eIF2α.1 full length fused to the GAL4 DNA binding domain (Arabidopsis thaliana) (UniProt Q9FE78); experiment: two-hybrid; GAL4 system; eIF2α homologs on the DNA-binding domain (pGBT9, bait), SPA1 forms on the activation domain (pGAD424, prey); yeast AH109; growth on SD-Leu-Trp-His, 30 °C
T1 sequence: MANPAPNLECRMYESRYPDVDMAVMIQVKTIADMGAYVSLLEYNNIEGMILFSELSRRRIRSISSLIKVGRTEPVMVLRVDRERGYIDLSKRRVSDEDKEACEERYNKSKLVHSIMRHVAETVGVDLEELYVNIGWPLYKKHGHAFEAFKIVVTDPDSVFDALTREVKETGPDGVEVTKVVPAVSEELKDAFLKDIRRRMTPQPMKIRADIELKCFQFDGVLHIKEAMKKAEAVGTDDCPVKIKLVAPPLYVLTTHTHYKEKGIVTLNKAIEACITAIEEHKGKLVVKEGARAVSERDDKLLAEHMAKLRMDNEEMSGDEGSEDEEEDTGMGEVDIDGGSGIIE

[2] = molecular target: T2, eIF2α.1-YC (Arabidopsis thaliana) (UniProt Q9FE78); experiment: split reporter; BiFC; SPA1-YN and eIF2α-YC co-transfected into Arabidopsis Col-0 protoplasts; light condition
T2 sequence: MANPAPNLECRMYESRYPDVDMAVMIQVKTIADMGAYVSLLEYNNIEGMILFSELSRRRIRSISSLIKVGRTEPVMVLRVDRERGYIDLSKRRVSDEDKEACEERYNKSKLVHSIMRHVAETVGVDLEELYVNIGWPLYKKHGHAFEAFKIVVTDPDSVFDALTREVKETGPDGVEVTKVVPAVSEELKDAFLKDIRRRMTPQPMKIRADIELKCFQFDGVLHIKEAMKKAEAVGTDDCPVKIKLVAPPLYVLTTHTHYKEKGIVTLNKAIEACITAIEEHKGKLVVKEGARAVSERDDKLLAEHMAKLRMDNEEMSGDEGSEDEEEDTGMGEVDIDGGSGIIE

[3] = molecular target: T3, eIF2α.1-GFP (Arabidopsis thaliana) (UniProt Q9FE78); experiment: condition: only etiolated seedlings kept in the dark; co-IP; as a3, but four-day-old etiolated seedlings kept in the dark
T3 sequence: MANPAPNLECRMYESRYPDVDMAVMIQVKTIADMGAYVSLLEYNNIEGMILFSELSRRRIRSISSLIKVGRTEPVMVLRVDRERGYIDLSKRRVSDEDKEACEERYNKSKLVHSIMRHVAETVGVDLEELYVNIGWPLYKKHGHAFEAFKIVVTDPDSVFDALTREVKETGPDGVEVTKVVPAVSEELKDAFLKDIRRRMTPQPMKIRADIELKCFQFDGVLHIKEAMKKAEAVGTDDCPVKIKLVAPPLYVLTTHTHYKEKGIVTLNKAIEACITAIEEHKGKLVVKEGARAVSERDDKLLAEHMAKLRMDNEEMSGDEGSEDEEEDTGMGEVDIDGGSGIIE

[4] = molecular target: T3, eIF2α.1-GFP (Arabidopsis thaliana); experiment: co-IP; total extracts of eIF2α.1-GFP or eIF2α.2-GFP seedlings mixed with extract of TAP-SPA1 seedlings; GFP-Trap; blots anti-cMyc and anti-GFP; four-day-old etiolated seedlings illuminated with white light for 4 h
[5] = molecular target: T4, eIF2α.1 of the pull-down assay of Supplementary Fig. 3 (Arabidopsis thaliana) (UniProt Q9FE78); experiment: pull-down; pull-down of Supplementary Fig. 3; format not told in the text shown
T4 sequence: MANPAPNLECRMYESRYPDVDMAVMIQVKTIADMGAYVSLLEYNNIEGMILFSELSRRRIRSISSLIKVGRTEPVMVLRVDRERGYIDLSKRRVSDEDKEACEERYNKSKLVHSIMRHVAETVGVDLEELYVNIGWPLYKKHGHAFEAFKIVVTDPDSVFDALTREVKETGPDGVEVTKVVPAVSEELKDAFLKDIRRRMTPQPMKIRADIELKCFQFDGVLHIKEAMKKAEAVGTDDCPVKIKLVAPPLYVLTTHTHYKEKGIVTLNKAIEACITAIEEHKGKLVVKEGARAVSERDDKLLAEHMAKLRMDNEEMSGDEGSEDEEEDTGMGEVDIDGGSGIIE

B1: SPA1 kinase domain fused to the GAL4 activation domain (domain or fragment, UniProt Q9SYX2 188-529)
chain: VQMKTPVSSSNFSQLLLKRAMKGKGVVGKNQETPPEFVSDQDLGSKEKKLDISKSPTPHDVLPLKSSPKGNGMVSHGDGNHSKSSIGISLREFLRSSYAKREKRHGLCLFRQLVELVDSAHSKRLFLLDLRPSLFTLVPSKKLRYIGNFGKNDLESDVDEDLNRRRPVVEESSSGGRDSKKRKMDLHLNSPGNQLQATSTGRPFKRKSPVIDLNMVDARNPDSCELQQQDYIKNLSVSSVSRKQSMSTWLEEQWYTCPEEINGEDIGEKSNIYALGVLLFELLCHCESGEMHAAMMADLRHRILPPTFLSKYPKEAGFCLWLLHPEPSSRPSARDILKSELI
binding [1]: binds

B2: SPA1 full length fused to the GAL4 activation domain (protein, UniProt Q9SYX2 1-1029)
chain: MPVMERVAEETVATNNIQLKARVDDVPCNKLDARHNDMVIQSETANSDCPGSSAHRNVDLTKPPPPEEAAGAKLSVEELTLGNYRIVQGSNNTNVDSPRAGKFEHLYRLARGSAFRAGDGDLDSQPRDMDQMLSRIRQQLAGAPSERQNLKPFMSRRSDQNLEAFSERLRAAGENSIMNAPALISEGVQMKTPVSSSNFSQLLLKRAMKGKGVVGKNQETPPEFVSDQDLGSKEKKLDISKSPTPHDVLPLKSSPKGNGMVSHGDGNHSKSSIGISLREFLRSSYAKREKRHGLCLFRQLVELVDSAHSKRLFLLDLRPSLFTLVPSKKLRYIGNFGKNDLESDVDEDLNRRRPVVEESSSGGRDSKKRKMDLHLNSPGNQLQATSTGRPFKRKSPVIDLNMVDARNPDSCELQQQDYIKNLSVSSVSRKQSMSTWLEEQWYTCPEEINGEDIGEKSNIYALGVLLFELLCHCESGEMHAAMMADLRHRILPPTFLSKYPKEAGFCLWLLHPEPSSRPSARDILKSELICEDDSVKSTAAAEEISELLLHFLSSLEVQKKKKASKLLQDIQTLEDDIKEAERRYSSNVSLVRSHGAIEKRVQSSPLDEHCTTSSALFVPTANTDRLMSNIRQLEDAYFFMRSQINLSSSAATARSDKTLKDRDRCSENQNENQDMSTKGKSSDQLEVFFEGLCKFARYSKFETCGTIRSGDLLNSASVVCSLSFDPDEEHIAAAGISKKIKIFDFNAFMNESVGVHYPLVEMVNKSKLSCVCWNSYIKNYLASTDYDGVVQIWDAGTGQGFSQYTEHQKRAWSVDFSPSDPTKFVSGSDDCSVKLWSINEKRSLGTIWSPANVCCVQFSSYSNHLLAFGSADYKVYCYDLRYVKTPWCTLAGHEKAVSYVKFMDSETIVSASTDNSLKLWNLNKTNSSGLSPGACSLTYKGHTNQKNFVGLSVLDGYIACGSETNEVYSYYKSLPMPMTSYKFGSVDPISGNEYFDDNGQFVSSVCWRKKSNMLVAANSTGNMKLLKLV
binding [1]: binds

B5: SPA1 of the pull-down assay of Supplementary Fig. 3 (protein, UniProt Q9SYX2 1-1029)
chain: MPVMERVAEETVATNNIQLKARVDDVPCNKLDARHNDMVIQSETANSDCPGSSAHRNVDLTKPPPPEEAAGAKLSVEELTLGNYRIVQGSNNTNVDSPRAGKFEHLYRLARGSAFRAGDGDLDSQPRDMDQMLSRIRQQLAGAPSERQNLKPFMSRRSDQNLEAFSERLRAAGENSIMNAPALISEGVQMKTPVSSSNFSQLLLKRAMKGKGVVGKNQETPPEFVSDQDLGSKEKKLDISKSPTPHDVLPLKSSPKGNGMVSHGDGNHSKSSIGISLREFLRSSYAKREKRHGLCLFRQLVELVDSAHSKRLFLLDLRPSLFTLVPSKKLRYIGNFGKNDLESDVDEDLNRRRPVVEESSSGGRDSKKRKMDLHLNSPGNQLQATSTGRPFKRKSPVIDLNMVDARNPDSCELQQQDYIKNLSVSSVSRKQSMSTWLEEQWYTCPEEINGEDIGEKSNIYALGVLLFELLCHCESGEMHAAMMADLRHRILPPTFLSKYPKEAGFCLWLLHPEPSSRPSARDILKSELICEDDSVKSTAAAEEISELLLHFLSSLEVQKKKKASKLLQDIQTLEDDIKEAERRYSSNVSLVRSHGAIEKRVQSSPLDEHCTTSSALFVPTANTDRLMSNIRQLEDAYFFMRSQINLSSSAATARSDKTLKDRDRCSENQNENQDMSTKGKSSDQLEVFFEGLCKFARYSKFETCGTIRSGDLLNSASVVCSLSFDPDEEHIAAAGISKKIKIFDFNAFMNESVGVHYPLVEMVNKSKLSCVCWNSYIKNYLASTDYDGVVQIWDAGTGQGFSQYTEHQKRAWSVDFSPSDPTKFVSGSDDCSVKLWSINEKRSLGTIWSPANVCCVQFSSYSNHLLAFGSADYKVYCYDLRYVKTPWCTLAGHEKAVSYVKFMDSETIVSASTDNSLKLWNLNKTNSSGLSPGACSLTYKGHTNQKNFVGLSVLDGYIACGSETNEVYSYYKSLPMPMTSYKFGSVDPISGNEYFDDNGQFVSSVCWRKKSNMLVAANSTGNMKLLKLV
binding [5]: binds

The next lines start with the values.

binding [2]: binds
B3: SPA1-YN (protein, UniProt Q9SYX2 1-1029)
chain: MPVMERVAEETVATNNIQLKARVDDVPCNKLDARHNDMVIQSETANSDCPGSSAHRNVDLTKPPPPEEAAGAKLSVEELTLGNYRIVQGSNNTNVDSPRAGKFEHLYRLARGSAFRAGDGDLDSQPRDMDQMLSRIRQQLAGAPSERQNLKPFMSRRSDQNLEAFSERLRAAGENSIMNAPALISEGVQMKTPVSSSNFSQLLLKRAMKGKGVVGKNQETPPEFVSDQDLGSKEKKLDISKSPTPHDVLPLKSSPKGNGMVSHGDGNHSKSSIGISLREFLRSSYAKREKRHGLCLFRQLVELVDSAHSKRLFLLDLRPSLFTLVPSKKLRYIGNFGKNDLESDVDEDLNRRRPVVEESSSGGRDSKKRKMDLHLNSPGNQLQATSTGRPFKRKSPVIDLNMVDARNPDSCELQQQDYIKNLSVSSVSRKQSMSTWLEEQWYTCPEEINGEDIGEKSNIYALGVLLFELLCHCESGEMHAAMMADLRHRILPPTFLSKYPKEAGFCLWLLHPEPSSRPSARDILKSELICEDDSVKSTAAAEEISELLLHFLSSLEVQKKKKASKLLQDIQTLEDDIKEAERRYSSNVSLVRSHGAIEKRVQSSPLDEHCTTSSALFVPTANTDRLMSNIRQLEDAYFFMRSQINLSSSAATARSDKTLKDRDRCSENQNENQDMSTKGKSSDQLEVFFEGLCKFARYSKFETCGTIRSGDLLNSASVVCSLSFDPDEEHIAAAGISKKIKIFDFNAFMNESVGVHYPLVEMVNKSKLSCVCWNSYIKNYLASTDYDGVVQIWDAGTGQGFSQYTEHQKRAWSVDFSPSDPTKFVSGSDDCSVKLWSINEKRSLGTIWSPANVCCVQFSSYSNHLLAFGSADYKVYCYDLRYVKTPWCTLAGHEKAVSYVKFMDSETIVSASTDNSLKLWNLNKTNSSGLSPGACSLTYKGHTNQKNFVGLSVLDGYIACGSETNEVYSYYKSLPMPMTSYKFGSVDPISGNEYFDDNGQFVSSVCWRKKSNMLVAANSTGNMKLLKLV

binding [3]: no binding
binding [4]: binds
B4: tandem affinity purification cMyc-SPA1 (TAP-SPA1) (protein, UniProt Q9SYX2 1-1029)
chain: MPVMERVAEETVATNNIQLKARVDDVPCNKLDARHNDMVIQSETANSDCPGSSAHRNVDLTKPPPPEEAAGAKLSVEELTLGNYRIVQGSNNTNVDSPRAGKFEHLYRLARGSAFRAGDGDLDSQPRDMDQMLSRIRQQLAGAPSERQNLKPFMSRRSDQNLEAFSERLRAAGENSIMNAPALISEGVQMKTPVSSSNFSQLLLKRAMKGKGVVGKNQETPPEFVSDQDLGSKEKKLDISKSPTPHDVLPLKSSPKGNGMVSHGDGNHSKSSIGISLREFLRSSYAKREKRHGLCLFRQLVELVDSAHSKRLFLLDLRPSLFTLVPSKKLRYIGNFGKNDLESDVDEDLNRRRPVVEESSSGGRDSKKRKMDLHLNSPGNQLQATSTGRPFKRKSPVIDLNMVDARNPDSCELQQQDYIKNLSVSSVSRKQSMSTWLEEQWYTCPEEINGEDIGEKSNIYALGVLLFELLCHCESGEMHAAMMADLRHRILPPTFLSKYPKEAGFCLWLLHPEPSSRPSARDILKSELICEDDSVKSTAAAEEISELLLHFLSSLEVQKKKKASKLLQDIQTLEDDIKEAERRYSSNVSLVRSHGAIEKRVQSSPLDEHCTTSSALFVPTANTDRLMSNIRQLEDAYFFMRSQINLSSSAATARSDKTLKDRDRCSENQNENQDMSTKGKSSDQLEVFFEGLCKFARYSKFETCGTIRSGDLLNSASVVCSLSFDPDEEHIAAAGISKKIKIFDFNAFMNESVGVHYPLVEMVNKSKLSCVCWNSYIKNYLASTDYDGVVQIWDAGTGQGFSQYTEHQKRAWSVDFSPSDPTKFVSGSDDCSVKLWSINEKRSLGTIWSPANVCCVQFSSYSNHLLAFGSADYKVYCYDLRYVKTPWCTLAGHEKAVSYVKFMDSETIVSASTDNSLKLWNLNKTNSSGLSPGACSLTYKGHTNQKNFVGLSVLDGYIACGSETNEVYSYYKSLPMPMTSYKFGSVDPISGNEYFDDNGQFVSSVCWRKKSNMLVAANSTGNMKLLKLV
